From a compilation of properties of binary mixtures (doi:10.1016/j.molliq.2012.02.004)
The densities may have been worked out from excess volumes.

Experiment: xn = mol fraction of the nth substance listed
Settings: 101 kPa

CCCCCC[n+]1ccn(C)c1.F[B-](F)(F)F + CC(C)O
mass density [kg/m3]
Settings	x2 = 0	x2 = 0.1493	x2 = 0.2289	x2 = 0.2991	x2 = 0.3752	x2 = 0.4942	x2 = 0.5845	x2 = 0.7067	x2 = 0.762	x2 = 0.9165
293.15 K	1149.2	1129.8	1117.5	1104.9	1089.5	1060.5	1033.5	987.1	961.3	–
303.15 K	1142.5	–	1110.6	1097.9	–	1053.2	–	–	–	854.7
313.15 K	1135.8	1116.1	1103.6	1090.9	1075.3	1046	1018.7	971.8	–	846.5
323.15 K	–	1109.3	–	1083.9	1068.2	1038.8	1011.4	964.1	937.9	838
333.15 K	–	–	1089.8	1076.9	–	1031.5	1003.8	956.3	–	829.2

CC(C)O + CCCCCC[n+]1ccn(C)c1.F[B-](F)(F)F
x1 = 1
Settings	mass density [kg/m3]
293.15 K	785.3
303.15 K	776.8
313.15 K	768
323.15 K	758.8
333.15 K	749.2
